Reference: PubChem BioAssay AID360 (National Center for Advancing Translational Sciences (NCATS), 2006)
In all, about 48,000 compounds went through this assay and about 550 (1.1%) were called active. Another 4% or so got no clear call; they are omitted. No stated cut-off is given here; in the data, active means potency below about 15 µM; inconclusive means mostly about 16 µM to 33 µM; inactive means weaker than that. Some of the results follow.

The molecules below were run against Lysosomal acid glucosylceramidase (Homo sapiens) (UniProt P04062) (assay: Glucocerebrosidase). Details: purified enzyme, resorufin glucoside fluorescence (screen aimed at inhibitors), 20 min; series mostly up to 77 µM.
How it was run: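 Wild-type enzyme at 0.2 nM final in 50mM citric acid/KH2PO4, 10mM sodium taurocholate, 0.01% tween-20, pH 5.9, with resorufin beta-D-glucopyranoside at 30 uM final. Compounds titrated, 20 min at RT, red fluorescence read; AC50 from titration.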
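Further: the screen sought inhibitors.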
Potency means the concentration at half of the fitted maximal effect.

UniProt P04062, sequence (P04062 whole entry, looked up): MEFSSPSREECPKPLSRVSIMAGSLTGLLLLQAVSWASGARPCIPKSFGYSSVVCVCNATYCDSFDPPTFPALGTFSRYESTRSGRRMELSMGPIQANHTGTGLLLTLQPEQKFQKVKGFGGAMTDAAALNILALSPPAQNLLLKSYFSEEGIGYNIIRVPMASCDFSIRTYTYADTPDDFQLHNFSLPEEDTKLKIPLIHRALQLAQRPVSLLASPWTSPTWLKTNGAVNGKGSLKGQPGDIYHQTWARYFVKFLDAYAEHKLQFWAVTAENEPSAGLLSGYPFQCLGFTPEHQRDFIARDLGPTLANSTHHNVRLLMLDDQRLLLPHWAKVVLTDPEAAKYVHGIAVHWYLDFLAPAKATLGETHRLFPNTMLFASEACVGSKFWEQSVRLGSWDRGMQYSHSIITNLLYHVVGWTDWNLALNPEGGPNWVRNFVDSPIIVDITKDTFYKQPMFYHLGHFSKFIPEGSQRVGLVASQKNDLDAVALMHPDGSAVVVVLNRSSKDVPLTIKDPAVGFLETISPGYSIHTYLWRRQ

Potency, active:
CCCC(=O)Nc1ccc(C(=O)NCCCn2ccnc2)cc1 6.73 µM

Potency, inactive:
COc1cccc(CCC(=O)O)c1OC > 76.9 µM, CCOC(=O)C1=C(C)NC(=O)NC1/C=C/c1ccccc1 (stereo unspecified) > 76.9 µM, N#Cc1nc(-c2ccco2)oc1N1CCc2ccccc2C1 > 76.9 µM, CCOC(=O)c1c(NC(=O)CSc2nnc(-c3ccc(OC)cc3)o2)sc2c1CCC2 > 76.9 µM, CCOC(=O)CSc1nc2ccccc2c(=O)n1CC1COc2ccccc2O1 (stereo unspecified) > 76.9 µM, Cc1cc(C(=O)COC(=O)CCC(=O)c2ccc3c(c2)OCCO3)c(C)n1Cc1ccco1 > 76.9 µM, CCNc1nc(Oc2ccc(=O)n(-c3ccccc3)n2)nc(N2CCOCC2)n1 > 76.9 µM, Cc1cc(C)cc(OCC(=O)Nc2nonc2NC(=O)COc2cc(C)cc(C)c2)c1 > 76.9 µM, Cc1cc(=O)n2[nH]c(COc3ccccc3)nc2n1 > 76.9 µM, Cc1ccc(NC2SC(=O)N(Cc3cccc(C(=O)O)c3)C2=O)cc1 (stereo unspecified) > 76.9 µM, O=C(NCc1ccccc1)C(c1cccs1)N(C(=O)c1csnn1)C1CC1 (stereo unspecified) > 76.9 µM, Cc1ccc(-c2c3c(=O)n(C)c(=O)n(C)c3cn2-n2cnnc2)cc1 > 76.9 µM, Cc1cc(C(=O)CSc2nnc(Nc3ccccc3F)s2)c(C)n1CC1CCCO1 (stereo unspecified) > 76.9 µM, COc1ccc(N2C(=O)C3C4C=CC(C4)C3C2=O)c(OC)c1 (stereo unspecified) > 76.9 µM, Cc1ccc(Cn2ccc(NC(=O)c3nc4ncccn4n3)n2)cc1 > 76.9 µM, Cc1ccc(S(=O)(=O)NCCn2c(C)cc3ccccc32)cc1 > 76.9 µM, Cc1ccc(NCc2nnc(SCC(=O)NCc3ccco3)n2CC2CCCO2)cc1Cl (stereo unspecified) > 76.9 µM, Cc1ccccc1-c1nnc(SCC(=O)Nc2ccc(Cl)cc2)n1N > 76.9 µM, CCOc1cc(S(=O)(=O)N2CCC(Cc3ccccc3)CC2)c(OCC)cc1-n1cnnn1 > 76.9 µM, O=C(CCCCCN1C(=O)CCC1=O)Nc1ncn[nH]1 > 76.9 µM, CN(C)c1ccc(C(=O)Nc2ccc(S(=O)(=O)NC3=NCCCCC3)cc2)cc1 > 76.9 µM, O=C(Nc1ccc(F)cc1)NC1CCN(Cc2nnnn2Cc2ccco2)CC1 > 76.9 µM, O=c1cc(CO)oc(CN2CCC(Cc3ccccc3)CC2)c1O > 76.9 µM, Cc1ccc(C(=O)OCC(=O)N2CC(=O)Nc3ccccc32)s1 > 76.9 µM, CC(C)(C)n1ncc2c(=O)n(Cc3c(F)cccc3Cl)cnc21 > 76.9 µM, COCc1cc(C)nc(SCC(=O)Nc2cccc(C)c2)c1C#N > 76.9 µM, CSc1ccc(-c2nnn(Cc3ccccn3)n2)cc1 > 76.9 µM, Nc1nc(-c2ccc(Br)s2)c(Br)s1 > 76.9 µM, Cc1ccc(-c2csc3ncnc(Sc4nnc(CN5CCCCCC5=O)o4)c23)cc1 > 76.9 µM, COc1cc(OC)cc(-c2nc(-c3cc4cc(C)ccc4nc3OC)no2)c1 > 76.9 µM, C=CCNC(=O)c1cc(=O)c2ccccc2o1 > 76.9 µM, CCN1C(=O)/C(=C/N2CC(C)CC(C)C2)SC1=S (stereo unspecified) > 76.9 µM, COc1ccc2nc(NC(=O)CN(c3ccc(C)cc3)S(=O)(=O)c3c(C)nn(C)c3C)sc2c1 > 76.9 µM, CSc1nc(C)cc(-n2ccc(=O)[nH]c2=O)n1 > 76.9 µM, CCCS(=O)(=O)N1CCCC(C(=O)NCc2ccc3c(c2)OCO3)C1 (stereo unspecified) > 76.9 µM, COc1ccc2c(c1)CCc1c(C(=O)NCCCn3ccnc3)noc1-2 > 76.9 µM, C=CCn1c(SCC(N)=O)nnc1-c1cccc(Br)c1 > 76.9 µM, O=c1cc(CO)oc(CN2CCN(c3ccccc3)CC2)c1O > 76.9 µM, CCNC(=O)NC(=O)C(C)Oc1ccc(C(=O)OC)cc1 (stereo unspecified) > 76.9 µM, COc1ccc(C2N(c3cc(C)on3)C(=O)C3CCCN32)cc1OC (stereo unspecified) > 76.9 µM, CCSc1nnc(-c2cccs2)o1 > 76.9 µM, O=C(CN1CCNCC1)Nc1ccccc1Cl > 76.9 µM, CS(=O)(=O)N(Cc1ccc(F)cc1)Cc1nc2ccccc2c(=O)[nH]1 > 76.9 µM, c1ccc(CCN2CCN(c3ncnc4c3cnn4-c3ccccc3)CC2)cc1 > 76.9 µM, Cc1ccc(NCc2nnc(SCC(=O)N3CCCCC3)n2CC2CCCO2)c(C)c1 (stereo unspecified) > 76.9 µM, CCCCCn1c(=O)c(C(=O)OCC)c(O)c2ccccc21 > 76.9 µM, Cc1cccc(NC(=O)c2oc3c(c2C)C(=O)CC(C)(C)C3)n1 > 76.9 µM, Cc1ccc(N2CC(C(=O)NCc3ccc4c(c3)OCO4)CC2=O)cc1C (stereo unspecified) > 76.9 µM, Cc1cc(-c2nnc(-c3cc4ccccc4oc3=O)o2)c(C)n1-c1ccccc1 > 76.9 µM, COc1ccc(N(CC(=O)O)S(C)(=O)=O)cc1OC > 76.9 µM, CC(=O)N(CC(=O)Nc1nn(-c2ccccc2)nc1C(N)=O)Cc1ccccc1 > 76.9 µM, Cc1cccc(NC(=O)Cn2c(=O)n(Cc3ccco3)c(=N)c3c4c(sc32)COC(C)(C)C4)c1 > 76.9 µM, Cc1cccc(C)c1N(CC(=O)Nc1cccc(N(C)S(C)(=O)=O)c1)S(C)(=O)=O > 76.9 µM, COC(=O)Nc1cc(C(F)(F)F)ccc1N1CCN(c2ccccc2)CC1 > 76.9 µM, Cc1cc(C2C(C#N)=C(N)SC(N)=C2C#N)c(C)s1, CCN(CC)C(=O)Cn1nnc(-c2ccc(C)o2)n1 > 76.9 µM, O=C(CN(Cc1ccco1)C(=O)CNS(=O)(=O)c1ccccc1)NCc1ccccc1 > 76.9 µM, O=C(O)C1C2C=CC(C3CC23)C1C(=O)NCCc1ccccc1 (stereo unspecified) > 76.9 µM, CCS(=O)(=O)N1CCCC(C(=O)NCc2ccccc2Cl)C1 (stereo unspecified) > 76.9 µM, CC12C(=O)N(n3cnnc3)C(=O)C1C1C=CC2C1 (stereo unspecified) > 76.9 µM, Nc1ccc2c(C(F)(F)F)cc(=O)oc2c1 > 76.9 µM, CC(C)(CN1CCCCC1)NS(=O)(=O)c1ccc(Cl)cc1 > 76.9 µM, Cc1ccc2cc3cc(C(=O)N(C)C4CCCCC4)oc3nc2c1 > 76.9 µM, O=C(CN1CCOCC1)Nc1nc(-c2ccc3c(c2)CCN3S(=O)(=O)c2ccccc2)cs1 > 76.9 µM, CCOCCn1c(N2CCN(c3ccc(OC)cc3)CC2)nc2c1c(=O)n(C)c(=O)n2C > 76.9 µM, COC(=O)C1C(c2ccccc2)C(C(=O)N2CCOCC2)C1c1ccccc1 (stereo unspecified) > 76.9 µM, Nc1nonc1-c1noc(COc2ccccc2Cl)n1 > 76.9 µM, CCOC(=O)c1c(C)[nH]c(C(=O)NCc2ccccc2OC)c1C > 76.9 µM, CC(=O)N1CCN(c2ccc(Nc3nc(C)nc4c3oc3ccccc34)cc2)CC1 > 76.9 µM, COc1ccccc1-n1cnnc1SCC(=O)N1CCN(S(=O)(=O)c2ccccc2)CC1 > 76.9 µM, Cc1cc(C)n(-c2nncn2/N=C/c2ccccc2F)n1 > 76.9 µM, COc1cc2nc(C)sc2cc1SC > 76.9 µM, Cn1cccc1C1NC(=O)c2c(sc3c2CCC(C(C)(C)C)C3)N1 (stereo unspecified) > 76.9 µM, CC(=O)C1=C(O)C(=O)N(CCC(=O)O)C1c1cccc(F)c1 (stereo unspecified) > 76.9 µM, Cc1cc(NC(=O)CSc2nnc(C(C)N(C)C)n2Cc2ccccc2)no1 (stereo unspecified) > 76.9 µM, C=CCSc1nnc(NC(=O)CSc2nc(CCC)cc(=O)[nH]2)s1 > 76.9 µM, Cc1cc(C)cc(NC(=O)CSc2nnc(-c3ccccc3Br)o2)c1 > 76.9 µM, CCN1CCN(CC(O)COc2ccc(C)c(C)c2)CC1 (stereo unspecified) > 76.9 µM, Cc1cc(NC(=O)CCC(=O)N(c2cccc(F)c2)C(C(=O)NC2CCCC2)c2ccncc2)no1 (stereo unspecified) > 76.9 µM, COc1ccc(OC)c(CNC(=O)COc2cc(=O)n(C)c3ccccc23)c1 > 76.9 µM, O=C(Nc1ccc(NC(=O)C2CC2)cn1)c1ccccc1Cl > 76.9 µM, O=C(Nc1nc2ccccc2n1CCOc1ccccc1)c1ccco1 > 76.9 µM, CC(=O)Nc1nc(-c2cccs2)cs1 > 76.9 µM, Cc1cn2c(-c3cccnc3)nnc2s1 > 76.9 µM, C=CCn1c(-c2ccccc2)nc2nc3ccccc3nc21 > 76.9 µM, COC(=O)NCCOC(=O)N(O)c1ccc(Br)cc1 > 76.9 µM, CCn1c(CSc2nc3ccccc3[nH]2)n[nH]c1=S > 76.9 µM, CCCOc1ccc(C2C(C(=O)c3ccc(C)o3)=C(O)C(=O)N2Cc2cccnc2)cc1 (stereo unspecified) > 76.9 µM, CCOC(=O)N1CCN(Cc2nc3c(c(=O)n(C)c(=O)n3C)n2Cc2cc(C)ccc2C)CC1 > 76.9 µM, COc1ccccc1NC(=O)c1cc(Sc2nncn2C)nc2ccccc12 > 76.9 µM
